Laboratory results as given in article PMC2663385 (Nature cell biology, 2009).

Molecular target: the molecule itself
Assay: SEC-MALS

B1: STIM1([…]) (domain or fragment)
chain: not shown
  stoichiometry N: 2
